# Source: PubChem BioAssay AID504332 (National Center for Advancing Translational Sciences (NCATS), 2011)
# Out of some 350,000 compounds screened, about 31,000 (8.9%) were called active. Inconclusive means that the source gave no clear call. Such entries were picked first, then a sample of the others. Calls follow the shape of the dose curve; as a rule, active = well fitted inhibition curve with a large enough effect; inconclusive = small, poorly fitted or top-dose-only effect; inactive = no such curve, though single readings can be large or run the other way. A potency beside an inconclusive call is a rough fit, not a confirmed value.
# Biological target: Histone-lysine N-methyltransferase EHMT2 (Homo sapiens) (UniProt Q96KQ7)
# UniProt Q96KQ7, sequence (Q96KQ7 whole entry, looked up): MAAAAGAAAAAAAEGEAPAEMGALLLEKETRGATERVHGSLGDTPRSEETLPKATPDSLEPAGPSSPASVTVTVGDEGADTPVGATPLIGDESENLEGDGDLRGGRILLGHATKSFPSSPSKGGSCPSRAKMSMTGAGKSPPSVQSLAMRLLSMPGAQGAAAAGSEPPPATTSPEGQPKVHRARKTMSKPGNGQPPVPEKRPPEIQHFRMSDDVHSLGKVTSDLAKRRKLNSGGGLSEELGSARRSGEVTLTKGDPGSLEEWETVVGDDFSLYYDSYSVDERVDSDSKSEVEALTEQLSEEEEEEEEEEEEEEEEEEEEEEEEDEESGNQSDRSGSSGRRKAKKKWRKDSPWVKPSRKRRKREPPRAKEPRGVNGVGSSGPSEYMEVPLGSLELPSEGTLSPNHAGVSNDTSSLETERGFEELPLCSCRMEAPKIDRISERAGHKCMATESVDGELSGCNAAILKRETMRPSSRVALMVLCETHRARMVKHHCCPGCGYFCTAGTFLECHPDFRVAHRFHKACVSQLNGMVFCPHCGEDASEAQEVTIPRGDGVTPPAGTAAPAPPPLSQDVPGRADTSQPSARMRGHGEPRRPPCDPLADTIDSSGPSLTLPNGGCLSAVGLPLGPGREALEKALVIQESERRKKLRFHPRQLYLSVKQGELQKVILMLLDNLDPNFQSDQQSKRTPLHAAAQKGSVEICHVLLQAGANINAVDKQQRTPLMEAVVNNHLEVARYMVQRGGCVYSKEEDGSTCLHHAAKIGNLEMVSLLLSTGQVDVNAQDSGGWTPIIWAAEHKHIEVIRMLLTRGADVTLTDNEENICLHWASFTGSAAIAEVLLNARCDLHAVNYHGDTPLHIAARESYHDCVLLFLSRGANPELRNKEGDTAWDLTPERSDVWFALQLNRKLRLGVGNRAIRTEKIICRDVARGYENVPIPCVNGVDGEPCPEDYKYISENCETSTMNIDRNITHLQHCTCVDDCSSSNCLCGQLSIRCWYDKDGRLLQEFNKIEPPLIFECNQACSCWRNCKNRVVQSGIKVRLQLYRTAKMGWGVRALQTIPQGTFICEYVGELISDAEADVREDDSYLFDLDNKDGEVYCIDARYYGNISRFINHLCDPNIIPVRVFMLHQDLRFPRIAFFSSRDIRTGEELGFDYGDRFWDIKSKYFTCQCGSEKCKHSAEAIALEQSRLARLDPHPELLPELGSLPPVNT
# Assay: qHTS Assay for Inhibitors of Histone Lysine Methyltransferase G9a; also: nearly all actives have a fitted effect of over 75% in size
# Settings: G9a H3K9 monomethylation, AlphaScreen, 2 h; activity, negative = inhibition: at 59 µM (top of the series) unless noted
# In short: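 Compounds were preincubated with 20 nM G9a for 15 min, after which biotinylated H3K9 peptide (500 nM) and SAM (20 uM) started a 2 h room-temperature reaction. Monomethylated product was quantified by antibody-based AlphaScreen chemiluminescence.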
# % is scaled to controls: 0 for no effect and ±100 for the full control effect; potency is read from the fitted curve at half-maximal effect; tags tell the direction and shape of the fitted curve.
Compound,Potency,"activity, negative = inhibition"
CCNC(=O)CCn1nc(-c2ccc(C)cc2)c2ccccc2c1=O,inactive,
CC(=O)c1cc(Cl)ccc1OC(=O)c1ccco1,"inconclusive: 22.4 µM [inhibitor, single point]",
O=S1(=O)CC/C(=N\Nc2ccc(F)cc2)c2ccsc21,active: 10 µM,
Cc1ccc(NC(=O)CCn2ccc([N+](=O)[O-])n2)nc1,"inconclusive: 22.4 µM [inhibitor, single point]",
O=C(Nc1c(F)cc(F)cc1Br)c1cc2nc(C(F)F)cc(C(F)F)n2n1,"inconclusive: 50.1 µM [inhibitor, partial curve, poor fit]",
COc1cccc(Cn2c(CNS(=O)(=O)c3ccc(C(C)(C)C)cc3)nc3cccnc32)c1,inactive,
O=C1c2ccccc2C(=O)N1CCCc1nc2ccccc2c(=O)n1CCCn1ccnc1,"inconclusive: 70.8 µM [inhibitor, partial curve, poor fit]",
COc1cc(C(c2c(C)[nH][nH]c2=O)c2c(C)[nH][nH]c2=O)cc(Cl)c1O,active: 44.7 µM,
COc1ccc(S(=O)(=O)N(Cc2cccnc2)Cc2cc3ccccc3[nH]c2=O)cc1,inactive,
Cc1cnc(CN(C)C(=O)c2ccc3oc(Cc4ccc(Cl)cc4)nc3c2)[nH]1,"inconclusive: 89.1 µM [inhibitor, single point]",
COc1ccc(NCC(=O)N/N=C/c2c(C)nn(Cc3ccccc3)c2Cl)cc1,"inconclusive: 28.2 µM [inhibitor, single point]",
CCN(CCNC(=O)C1CCN(Cc2nc(-c3cccc(Cl)c3)oc2C)CC1)c1ccccc1,"inconclusive: 25.1 µM [inhibitor, partial curve, poor fit]",
CCNC(=O)c1ccccc1SCc1ccccc1,"inconclusive: 79.4 µM [inhibitor, single point]",
Cc1ccccc1N(C)S(=O)(=O)c1nnc(NC(=O)C(C)C)s1,"inconclusive: 0.282 µM [inhibitor, partial curve, poor fit]",
O=C(CS(=O)(=O)c1cn(Cc2ccc(Cl)cc2)c2ccccc12)N1CCCC1,"inconclusive: 89.1 µM [inhibitor, single point]",
COc1ccc(Cl)cc1-c1n[nH]c(=S)o1,"inconclusive: 14.1 µM [inhibitor, single point]",
O=c1c2cc3c(cc2[nH]c(=S)n1CCN1CCOCC1)OCO3,,inconclusive: -80.8% [inhibitor]
O=C(O)C1=C[C@@H](c2ccc(C(F)(F)F)cc2)C[C@@H](OCc2ccc(CO)cc2)O1,,inconclusive: -64.7% [inhibitor]
CN(CC(=O)Nc1ccccc1C(=O)NC1CC1)Cc1ccccc1F,inactive,
Cc1ccc(NC(=O)CSc2ncn(-c3ccccc3)n2)cc1C,inactive,
NC(=O)CCCCC1CCSS1 (configuration not stated),inactive,
O=C(N/C=C/c1ccco1)OCc1ccccc1,active: 50.1 µM,
N/C(=N\OS(=O)(=O)c1ccc2ccccc2c1)c1ccccn1,active: 5.01 µM,

Compound,Potency,"activity, negative = inhibition"
CSc1nnc(-c2ccccc2N=Cc2c(C)[nH]n(-c3ccc4ccccc4c3)c2=O)c(=O)[nH]1,"inconclusive: 89.1 µM [inhibitor, single point]",
CCCCN(CC)Cc1ccc(CNC(=S)Nc2c(C)cc(C)cc2C)o1,"inconclusive: 25.1 µM [inhibitor, full curve, poor fit]",
C=CCN(C(=O)C1CSC2(C)CCC(=O)N12)c1nc(-c2ccccc2)cs1 (configuration not stated),"inconclusive: 11.2 µM [inhibitor, partial curve, poor fit]",
COCCNc1oc(-c2cccs2)nc1S(=O)(=O)c1ccc(C)cc1,"inconclusive: 44.7 µM [inhibitor, partial curve, poor fit]",
O=C(c1cccc(S(=O)(=O)N2CCOCC2)c1)N1CCCc2ccccc21,,inactive: 11.2% [at 12.7 µM]
CCN1CCN(C(=O)c2cc(S(=O)(=O)Nc3ccc(S(C)(=O)=O)cc3)ccc2Cl)CC1,active: 50.1 µM,
CC(=O)N1CCN(c2ccc(NCc3ccc4c(c3)OCO4)cc2)CC1,"inconclusive: 3.98 µM [inhibitor, partial curve, poor fit]",
COC(=O)C(C#N)C(c1cccnc1)c1c(C)[nH][nH]c1=O (configuration not stated),,inconclusive: -86.6% [inhibitor]
CC1(C)Oc2ccc3ccc(=O)oc3c2-c2cnoc21,"inconclusive: 2.51 µM [inhibitor, full curve, poor fit]",
Cc1ccccc1C(=O)Nc1nnc(S(=O)(=O)N(C)Cc2ccco2)s1,"inconclusive: 50.1 µM [inhibitor, partial curve, poor fit]",
O=[N+]([O-])c1ccc(NCCCNS(=O)(=O)c2ccc(Cl)cc2)c(Cl)c1,"inconclusive: 25.1 µM [inhibitor, partial curve, poor fit]",
C[n+]1c(/C=C/c2ccc3c(c2)OCO3)ccc2ccccc21,"inconclusive: 31.6 µM [inhibitor, single point]",
CC(CCN1CCN(c2ccccn2)CC1)c1ccccc1 (configuration not stated),active: 28.2 µM,
C=CCCCCCCCCC(=O)Nc1ncccn1,inactive,
Cc1ccc(CC(=O)N2CCN(C(=O)c3ccco3)CC2)cc1,"inconclusive: 89.1 µM [inhibitor, partial curve, poor fit]",
COC(=O)c1oc2ccccc2c1NC(=O)/C=C/C(=O)O,"inconclusive: 50.1 µM [inhibitor, partial curve]",
COc1ccc2c(C)c(CCC(=O)NCc3ccc(Cl)cc3)c(=O)oc2c1C,inactive,
COc1ccc2cc(C(=O)N3CCN(Cc4ccc5c(c4)OCO5)CC3)[nH]c2c1,inactive,
c1ccc(-n2cnc3cc(NCc4ccccn4)ccc32)cc1,"inconclusive: 11.2 µM [inhibitor, single point]",
O=C(COC(=O)c1ccc(O)cc1O)N=c1sccn1Cc1ccccc1Cl,"inconclusive: 79.4 µM [inhibitor, single point]",
Cc1ccnc(NS(=O)(=O)c2ccc(NS(=O)(=O)c3cc(Cl)ccc3Cl)cc2)n1,"inconclusive: 89.1 µM [inhibitor, single point]",
COc1ccc(NC(=O)C2CCN(C(=O)Cc3ccccc3)CC2)c(OC)c1,"inconclusive: 89.1 µM [inhibitor, single point]",
O=C(NCC(c1ccc(Cl)cc1)N1CCCCC1)c1ccccc1F (configuration not stated),"inconclusive: 6.31 µM [inhibitor, single point]",

Compound,Potency,"activity, negative = inhibition"
CCOc1ccc(OCC)c(NC(=O)CCc2nc3cccnc3n2-c2ccccc2)c1,"inconclusive: 15.8 µM [inhibitor, partial curve, poor fit]",
Cc1cc(C)c(S(=O)(=O)/N=C2/C=C(SCC(=O)O)C(=O)c3ccccc32)cc1C,active: 5.62 µM,
Cc1cc(Cl)c(S(=O)(=O)N2CCCC2)cc1OCC(N)=O,"inconclusive: 39.8 µM [inhibitor, partial curve, poor fit]",
CCC1CN(C(=O)Nc2ccc(Br)cc2F)c2ccccc2S1 (configuration not stated),inactive,
COc1ccc(OC)c(NC(=O)CSc2nnc(Cc3cccn3C)n2-c2ccc(F)cc2)c1,"inconclusive: 39.8 µM [inhibitor, single point]",
C/C(=C\c1ccccc1)CN1CCC(C(=O)N2CCCCC2)CC1,"inconclusive: 31.6 µM [inhibitor, single point]",
O=C(NCCCN1CCCC1)Nc1ccc(F)cc1,"inconclusive: 89.1 µM [inhibitor, single point]",
Cc1[nH]c2ccccc2c1C1(O)C(=O)N(Cc2ccccc2Cl)c2ccccc21 (configuration not stated),"inconclusive: 35.5 µM [inhibitor, partial curve, poor fit]",
CCOC(=O)c1c(NC(=O)C2CCCO2)sc(C(N)=O)c1C (configuration not stated),"inconclusive: 39.8 µM [inhibitor, partial curve, poor fit]",
O=C(COC(=O)c1cc(-c2ccc(Cl)s2)nc2ccccc12)NCc1ccco1,"inconclusive: 3.55 µM [inhibitor, partial curve, poor fit]",
O=C1CSc2ccc(C(=O)O)cc2N1,"inconclusive: 50.1 µM [inhibitor, partial curve]",
O=C(NNC(=O)C1CC(c2cccs2)=NO1)Nc1ccc(Cl)cc1 (configuration not stated),"inconclusive: 89.1 µM [inhibitor, single point]",
CCCCn1c(SCC(=O)NC(C)CC)nc2ccc(N3CCOCC3)cc2c1=O (configuration not stated),"inconclusive: 50.1 µM [inhibitor, partial curve, poor fit]",
C#CCn1c(C2CC(=O)N(c3ccc(OCC)cc3)C2)nc2ccccc21 (configuration not stated),inactive,
COc1cccc(CN(Cc2cccnc2)S(=O)(=O)c2ccc(-n3cnnn3)c(C)c2)c1,"inconclusive: 12.6 µM [inhibitor, partial curve, poor fit]",
Cn1c(=O)c2c(O)cc(=O)n(-c3ccccc3)c2n(C)c1=O,"inconclusive: 89.1 µM [inhibitor, single point]",
Cc1ccc(C)c(N2CCN(CCCNC(=O)Cn3cc4c(n3)CCCCC4)CC2)c1,"inconclusive: 31.6 µM [inhibitor, partial curve, poor fit]",
O=C(NC(=S)Nc1ccc(N2CCCCC2)cc1)c1ccco1,"inconclusive: 39.8 µM [inhibitor, single point]",
O=C(CCCn1c(=S)[nH]c2cc3c(cc2c1=O)OCO3)NCCc1ccccc1Cl,inactive,
O=C(NCc1cccnc1)c1cc(S(=O)(=O)N2CCCCC2)ccc1Cl,inactive,
Cc1nc2nc(CSc3nnc(C)s3)cc(=O)n2[nH]1,"inconclusive: 79.4 µM [inhibitor, single point]",
